# Data: the supplement of paper PMC11417369
# ± gives the standard deviation of the averaged measurements. Some of the results follow.
# Test system: PfAP2-I AP2 domain 3 (GST-tagged)
# Assay: gcPBM binding intensity (ln(normalized median fluorescence intensity)); higher = stronger DNA binding
# Summary of the method: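 Binding intensity is defined as the maximum Masliner-normalised natural-log median intensity across replicate spots for either probe orientation. It was measured on an Agilent 4 × 180k array of primer-extended double-stranded 36-bp intergenic genomic probes and negative controls, to which GST-tagged P. falciparum DNA-binding domains made in E. coli were applied for 1 h in 1× PBS with 1% milk, 0.2 mg/ml BSA, 0.5% salmon testes DNA and 0.03% Triton X-100. Detection was by Alexa488 anti-GST antibody and scanning at 488 nm.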
row,Sequence,gcPBM binding intensity (ln)
1,AAAATACGAATATAAACATGCACCATATAGAACAAA [TGCATGCA_site925],9.22 ± 0.099
2,TTTTTACAAAAAAAAAAAAAAAAAATAAAAATAAAT [CACACA_negctrl_site1738],7.41 ± 0.73
3,TACAAATATAGATGCACACACATATACATACCTATA [CACACA_site7094],8.72 ± 0.2
4,AATTTTAAATTTAATTTACACACTTTTCATAGCATT [CACACA_site9264],7.79 ± 0.73
5,TATAAAACACACACACATATATATATATATTTATAT [TGCATGCA_negctrl_site48],7.81 ± 0.47
6,ATTTACAAAAATTTTGTATAAAGGGATTTTAAAATG [TGCATGCA_negctrl_site350],8.02 ± 0.33
7,GAAAAAAAAAAAAAAAGTACATTCTCTATTTCATGT [XGTACX_site3209],7.42 ± 0.35
8,ATAAATTTAAATAGGAGTACACAGCTTTATATTTTG [XGTACX_site4176],7.72 ± 0.56
9,TAATTACCATATGGTACACACATATTTATAGGTATA [CACACA_site7603],7.68 ± 0.44
10,CGCGCACCCAGACACACACACACACCCATATATATA [CACACA_site2203],8.44 ± 0.7
11,ACGTATAATATGTACACACACATATATACCAAAAAA [CACACA_site4661],7.97 ± 0.37
12,GATAAAATAATATATAGTACTTTTTTAAAATAAATA [XGTACX_site522],7.59 ± 0.21
13,ATTACATTTTTGTTTTGTACATATATTTTATAAACA [XGTACX_site494],7.91 ± 0.51
14,CGTAATAATTAATGTTGTACCCACCAAAAAAATTAA [XGTACX_site8592],8.01 ± 0.23
15,TATATTTATATATATACACACATAATAAAAAATATA [CACACA_site844],7.57 ± 0.35
16,TTGTTTTGTAATAAAAAAAAAATAATATAATATAAT [XGTACX_negctrl_site300],7.74 ± 0.61
17,GAAATATTGAAACACACACACAAACATATATATATA [CACACA_site1911],9.31 ± 0.11
18,TTTATAGTTTTAAACAAAGTAATACAAATGTATATA [CACACA_negctrl_site1716],7.42 ± 0.4
19,TATAAAAAAAATAAAATAAAATAAAATAGAAAAATA [TGCATGCA_negctrl_site109],7.46 ± 0.36
20,AAACGTTTATTTTATTGTACATATGAAAAATGCTTC [XGTACX_site6896],7.81 ± 0.45
21,AACATTATCAAATAAACCATAAATCAATTCAATATG [CACACA_negctrl_site696],7.46 ± 0.57
22,ATATTTTTTTTTTTCACACACATTTAGATTGTATTA [CACACA_site3137],7.96 ± 0.76

row,Sequence,gcPBM binding intensity (ln)
1,AAAAAAAAAAAAAATTGTACGGATTCTTTTTTTTTT [XGTACX_site2898],7.96 ± 0.69
2,TTGTATAAAAAACTAAAAAATATAAAATAATAAGTG [CACACA_negctrl_site1704],7.88 ± 0.47
3,TATATACATTTTTATGTGCACATTTTATTTTTAAAT,10.2 ± 0.19
4,TAAATCACAAAATTATGTACTAAGAAGGAGCAACAT [XGTACX_site6742],8.05 ± 0.45
5,TATACCTTAATATACACACATACATATATATATATA [CACACA_site1339],9.12 ± 0.32
6,GGGGAAAAAGCAGGTTGTACAGTGATGTCCATATAA [XGTACX_site7606],8.29 ± 0.52
7,TAACAAAGTAAAAGAACATGCAAACACGCACACAGA [TGCATGCA_site374],8.31 ± 0.69
8,AGTGTATTAAATTTTGAACACACAAAATAAAACATA [CACACA_site8483],8.185 ± 0.078
9,TTTTAATTTAAAAATTAATTTATATATATATATATA [TGCATGCA_negctrl_site447],9.44 ± 0.3
10,TTTAGACTTTTCTATAGTACATATTATATATATATA [XGTACX_site6532],9.05 ± 0.13
11,TTATTGCGCACAATTTGTACATATATATATATAGAA [XGTACX_site7573],9.79 ± 0.35
12,GAAAAATTAAAATGTGGTACAATAAAATTTTATTCA [XGTACX_site5030],7.69 ± 0.4
13,ATATTTATACTATACACACCCAATTTAAAAAAAAAT [CACACA_site1163],8.04 ± 0.48
14,AATTTATTAATACAAAGTACTTTCTAATATGAATTT [XGTACX_site8013],7.57 ± 0.56
15,GTAAGAAACAGACACACACACATATAAATATAAATA [CACACA_site6515],7.84 ± 0.51
16,TATTGAAAAAGTGGAAAAAAGTACATCATACGGGAA [CACACA_negctrl_site1091],8.3 ± 0.54
17,TTCTTAAAAAATCAAACACACATATATATATACATA [CACACA_site2296],7.61 ± 0.45
18,ATAAATAGAATAAAATGTACATGTAATACATATATA [XGTACX_site5475],7.43 ± 0.36
19,GTTTAGATAAAAGGGCGTACATCTATTTTTGACTAA [XGTACX_site7170],7.91 ± 0.56
20,AAAAAAAAAAAAAAAACACACAATTGAATTATTAAG [CACACA_site2864],8.69 ± 0.48
21,TTTTATTATTAAACATGTACCCATATTATTGTTATG [XGTACX_site5563],7.74 ± 0.52
22,AAAAAAAAAAAATATATATATATATATATAATATTT [GTGCAC_negctrl_site678],7.71 ± 0.24

row,Sequence,gcPBM binding intensity (ln)
1,GAATAAATAAAAATATGTACATAAATATATATATAT [XGTACX_site8858],9.2 ± 0.2
2,AAAAAAAAATAAAAAAGTACAGGTAAATATATATAT [XGTACX_site5812],8.88 ± 0.25
3,ATACTTTAAAATAATACACACATGGAAAATAAAATT [CACACA_site697],8.11 ± 0.67
4,AAGACAAATATGTATTGTACGAACGCTTTTTAATTA [XGTACX_site1961],7.45 ± 0.69
5,TTTATAAAATATCTTTCACACATTACTATGTATTAT [CACACA_site5148],7.73 ± 0.55
6,ATAAAAGTTTAATATTGTACGAACATGCGTTTCTAA [XGTACX_site1487],7.62 ± 0.32
7,AAAAAAATATATTCCTAATTTATGATTAAAAGGAAT [CACACA_negctrl_site751],7.18 ± 0.42
8,ATAAATTAAACAAACACACACGTTCTTTTATTTACT [CACACA_site4556],7.84 ± 0.57
9,TTTTTTTTTGGGTGTACACATGAATATATATTTTTT [CACACA_site5254],8.39 ± 0.47
10,AGAATTATATCATGGTGTACTTATTTGTTTATTTCT [XGTACX_site5795],7.91 ± 0.67
11,AAATTTGGTGAAGGATGTACTTTACCTAATACTTGT [XGTACX_site4825],7.67 ± 0.79
12,AAAACAAAAAAATTTTGTACGAAACAATACTGTAAG [XGTACX_site7992],7.53 ± 0.7
13,TATATATATTGTTATTGTACACAAATATAGGAAATA [XGTACX_site7110],8.18 ± 0.83
14,TAAATTTAAAATGACACACACTAAAATTATTTAAGT [CACACA_site4816],7.72 ± 0.52
15,AAATATTCATAGTATACACACATTTATTTATAACCA [CACACA_site6502],7.88 ± 0.52
16,ACCTTTAATATATACACACACATAAAAAAAATATAT [CACACA_site1843],8.66 ± 0.27
17,TAAAAGTATTCCTTTTGTACATATAATGAAAACAAT [XGTACX_site2069],7.77 ± 0.37
18,ATACAATAATATAAATGTACAAATTATATCTTAATT [XGTACX_site6004],7.54 ± 0.4
19,CTATATTTTTAAAAATGTACTTTATAATAAAATACT [XGTACX_site3593],7.83 ± 0.32
20,CTGTTTTTACTAAGTTGTACAAATGATGATACCCTA [XGTACX_site630],8.09 ± 0.36
21,GTATGTATGTATGTATGTACTTATTTATTTATTTAT [XGTACX_site1921],8.88 ± 0.3
22,TAAAATTTACGGTCTTGTTGCGCAACCAACATTGTC [CACACA_negctrl_site1175],8.07 ± 0.79

row,Sequence,gcPBM binding intensity (ln)
1,TAATAATAGTAAATATGTACATATATATATATATAG [XGTACX_site4602],7.92 ± 0.42
2,GTTTTTTTTTTTTTGGTGCGTCATTTTCAAAAGAAG [GTGCAC_site9745],9.54 ± 0.18
3,AAAAAAGAAAAGAAATGTACAGAGCTTATCTTTTTA [XGTACX_site5677],7.21 ± 0.71
4,TTTTTTAATTTTACATGTACATACAGGTTTTTTTTT [XGTACX_site4539],7.84 ± 0.58
5,TTCAATTTTACATGTAGTACATAAATTATACACAAA [XGTACX_site4946],8.18 ± 0.2
6,TTATTCCTATTTGGATGTACATTTTAATATAAACAT [XGTACX_site4386],8 ± 0.52
7,ATTAATAAATAAATGACACACACACCCACAAAAAAA [CACACA_site8839],8.42 ± 0.028
8,AATGATAAAAATAAATGTACAGAATGATATTTTTTT [XGTACX_site5976],7.62 ± 0.61
9,AAAAAATTGTTTCCCTGTACTCAAAAAAAAAAAAAA [XGTACX_site8070],8.09 ± 0.6
10,TAATTTTTATTCAGTTCACACACGCTTTAATATTAT [CACACA_site9147],7.76 ± 0.72
11,AAAAAATATACATATTGTACATTTTTTATTAACACA [XGTACX_site6415],7.62 ± 0.32
12,ATAAATTTACATTTTTTTTTTTTTTTTTTTTTTTTT [GTGCAC_negctrl_site689],9.8
13,GTATAGTACAAATAAGTGCATATAAAAGAAATACAG,10.4 ± 0.24
14,ATTACCAAAAAAAGGTGTACAAATATAATTATGAAA [XGTACX_site44],8.22 ± 0.61
15,ATTTTTTTTCGTAATTGTTCTTAATGTTGAATTATA [CACACA_negctrl_site1135],7.68 ± 0.64
16,TTTTCCTTTCACAATGGTACACAAATATACATGCAA [XGTACX_site7244],8.06 ± 0.47
17,TAGTAATATGTATCCATACACACATACATTTTATTT [CACACA_site873],7.61 ± 0.55
18,CAATTTATAAAGAAAACACACATATACCTATATACA [CACACA_site6710],7.59 ± 0.52
19,TACACGCATAAACACACACACACACCCATATATATA [CACACA_site8114],8.34 ± 0.68
20,TTTATATTTAAAGAAACATGCATTTATCATATATAC [TGCATGCA_site173],7.64 ± 0.67
21,TTTGTTGACGAACACACACACATACATATTTATATA [CACACA_site7141],7.86 ± 0.49
22,AAAAAAATAAAATACAAAATGGCTATACAAAATAAA [GTGCAC_negctrl_site535],7.73 ± 0.68
